In all, about 81,000 sequences were measured (“one-hybrid fitness for binding parS DNA”: median about -0.17, highest 2% from about 0.51 on). The list shows a part of the results.
B1: Caulobacter ParB omega fusion; a variant is named by its letters at X, in order, B8GW30 (parent)
chain: MESVVVGEPGMSEGRRGLGRGLSALLGEVDAAPAQAPGEQLGGSREAPIEILQRNPDQPRRTFREEDLEDLSNSIREKGVLQPILVRPSPDTAGEYQIVAGERAWRAAQRAGLKTVPIMVRELDDLAVLEIGIIENVQRADLNVLEEALSYKVLMEKFERTQENIAQTIGKSXSHVANXMRLLXLPDEVQSYLVSGELTAXHARAIAAAADPVALAKQIIEGGLSVRETEALARKAPNLSAGKSKGGRPPRVKDTDTQALESDLSSVLGLDVSIDHRGSTGTLTITYATLEQLDDLCNRLTRGI

Variants of: B1
Assay: one-hybrid fitness for binding parS DNA (scaled: cognate 1, non-cognate 0); higher = stronger binding
Conditions: with parS DNA site
Outline: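 Caulobacter ParB libraries with four specificity codons randomised were screened by bacterial one-hybrid selection in the E. coli USO strain, using a HIS3 reporter whose site lies 19 bp from the promoter. Selection ran for 48 hours at 37°C on M9 lacking histidine, with 0.1 mM IPTG and 5 mM 3-AT. Plasmids were Illumina-sequenced before and after selection, three replicate libraries were pooled, and variants with under 10 reads were dropped. Fitness is the log change in each variant's read ratio to wild type, rescaled against the cognate and non-cognate sites.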

Variant | one-hybrid fitness for binding parS DNA
CWKR | ≤ 0.2
FKAA | ≤ 0.2
HLIV | ≤ 0.2
RPTL | ≤ 0.2
DLYS | ≤ 0.2
GLGL | ≤ 0.2
RREM | ≤ 0.2
YLEY | ≤ 0.2
STQM | ≤ 0.2
PQPR | ≤ 0.2
AIMG | ≤ 0.2
YWRN | ≤ 0.2
DLYM | ≤ 0.2
ASCL | ≤ 0.2
RKMG | 0.951
QPEY | ≤ 0.2
GWVR | ≤ 0.2
IRAF | ≤ 0.2
QHVT | ≤ 0.2
RESL | ≤ 0.2
YWVL | ≤ 0.2

Variant | one-hybrid fitness for binding parS DNA
AFHR | ≤ 0.2
ASMR | ≤ 0.2
QTCD | ≤ 0.2
RTMK | ≤ 0.2
TPTF | ≤ 0.2
YLSD | ≤ 0.2
QPPK | ≤ 0.2
WPVC | ≤ 0.2
LRGA | ≤ 0.2
ANQR | ≤ 0.2
SIHV | ≤ 0.2
CGAE | ≤ 0.2
PDTR | ≤ 0.2
PKYG | ≤ 0.2
EIEL | 0.24
WFTR | ≤ 0.2
VGQM | ≤ 0.2
PTYE | ≤ 0.2
SNWT | ≤ 0.2
RYET | 0.772
PPAE | ≤ 0.2

Variant | one-hybrid fitness for binding parS DNA
FVAC | ≤ 0.2
QCST | ≤ 0.2
QPVR | ≤ 0.2
LLLN | ≤ 0.2
TTHD | ≤ 0.2
YDYI | ≤ 0.2
QMFS | ≤ 0.2
NVLT | ≤ 0.2
VYTT | ≤ 0.2
NLHH | ≤ 0.2
PRHA | ≤ 0.2
IKVF | ≤ 0.2
PNTC | ≤ 0.2
SVEG | ≤ 0.2
SNAT | ≤ 0.2
LSSR | ≤ 0.2
PQWW | ≤ 0.2
SEWR | ≤ 0.2
GFTP | ≤ 0.2
DHPI | ≤ 0.2
QCVT | ≤ 0.2

Variant | one-hybrid fitness for binding parS DNA
KCSF | ≤ 0.2
ATHW | ≤ 0.2
IRHF | ≤ 0.2
HRHP | ≤ 0.2
LYWE | ≤ 0.2
HEKD | ≤ 0.2
KADC | ≤ 0.2
HCEG | ≤ 0.2
NVNR | ≤ 0.2
PACR | ≤ 0.2
HRHT | ≤ 0.2
AGGQ | ≤ 0.2
PDNW | ≤ 0.2
KNPS | ≤ 0.2
GVPG | ≤ 0.2
GSWG | ≤ 0.2
TTLI | ≤ 0.2
DFLP | ≤ 0.2
QTES | ≤ 0.2
KERS | ≤ 0.2
ASEG | ≤ 0.2

— a collection of fitness landscapes (doi:10.1016/j.celrep.2020.107928)
